Consider 91 molecules from publication PMC4336329 (PLoS ONE, 2015).

In all, about 310,000 compounds went through this assay and about 2,200 (0.71%) showed an effect of 50% or more. Effects have a minus sign here. The list shows a part of the results.

Chain of human ether-à-go-go-related gene (hERG) potassium channel (Q12809 whole entry, looked up): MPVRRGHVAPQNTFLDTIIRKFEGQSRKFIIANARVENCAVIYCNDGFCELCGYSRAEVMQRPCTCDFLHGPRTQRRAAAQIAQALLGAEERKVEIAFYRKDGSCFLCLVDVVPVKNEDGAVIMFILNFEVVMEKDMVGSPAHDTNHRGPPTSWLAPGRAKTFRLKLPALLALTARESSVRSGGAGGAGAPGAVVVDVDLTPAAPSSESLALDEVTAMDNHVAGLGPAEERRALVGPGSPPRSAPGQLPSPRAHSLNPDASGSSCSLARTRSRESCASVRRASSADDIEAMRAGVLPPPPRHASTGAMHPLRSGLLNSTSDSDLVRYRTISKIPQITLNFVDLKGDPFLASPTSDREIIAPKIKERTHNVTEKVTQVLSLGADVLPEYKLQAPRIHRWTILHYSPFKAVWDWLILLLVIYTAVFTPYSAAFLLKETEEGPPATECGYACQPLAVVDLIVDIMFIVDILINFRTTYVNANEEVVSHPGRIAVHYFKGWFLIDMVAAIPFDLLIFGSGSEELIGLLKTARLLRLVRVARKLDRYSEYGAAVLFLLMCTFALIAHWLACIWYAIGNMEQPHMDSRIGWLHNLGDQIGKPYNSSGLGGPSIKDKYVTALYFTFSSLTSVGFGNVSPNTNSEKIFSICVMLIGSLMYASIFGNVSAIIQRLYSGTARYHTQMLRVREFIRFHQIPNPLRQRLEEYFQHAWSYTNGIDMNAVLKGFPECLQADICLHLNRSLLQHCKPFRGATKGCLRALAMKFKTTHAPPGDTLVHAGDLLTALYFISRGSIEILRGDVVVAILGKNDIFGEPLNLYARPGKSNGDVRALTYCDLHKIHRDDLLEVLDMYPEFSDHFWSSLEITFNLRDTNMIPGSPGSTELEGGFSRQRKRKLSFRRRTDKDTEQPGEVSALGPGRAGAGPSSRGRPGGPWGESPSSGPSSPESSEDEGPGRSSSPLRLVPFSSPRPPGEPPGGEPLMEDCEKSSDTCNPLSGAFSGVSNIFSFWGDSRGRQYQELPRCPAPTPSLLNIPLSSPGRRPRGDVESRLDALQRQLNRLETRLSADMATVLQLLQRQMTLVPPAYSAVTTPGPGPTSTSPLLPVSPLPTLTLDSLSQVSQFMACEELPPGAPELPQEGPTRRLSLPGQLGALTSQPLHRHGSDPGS

The test addresses human ether-à-go-go-related gene (hERG) potassium channel (human, UniProt Q12809). Description: primary screen, population patch clamp on CHO cells stably expressing hERG.
`CC(C)OP(=O)(Nc1cccc2ccccc12)OC(C)C`: the “hERG current change (%, negative = inhibition) at 1uM” value turned out to be 5.85%.
To `O=C(CCCn1c(=S)[nH]c2ccc(Br)cc2c1=O)N1CCN(c2ccccn2)CC1` belongs -6.43%; to `CC1CN(C(=O)COC(=O)c2cc(Cl)ccc2Cl)CC(C)O1` (stereo not shown), 8.04%.
To `CN(CC(=O)Nc1c(Cl)cccc1Cl)C(=O)Cc1ccc2c(c1)CCC2` belongs 19.2%; to `CC(=O)C1C(c2ccc(F)cc2)c2c(noc2C)CC1(C)O` (stereo not shown), 14.4%; to `COc1ccc(S(=O)(=O)N2CCCOC2CNC(=O)C(=O)NCCCN2CCOCC2)cc1` (stereo not shown), 13.3%.
To `Cc1ccc(-c2csc(NC(=O)c3cccc([N+](=O)[O-])c3)n2)cc1` belongs 10.3%; to `COC(=O)CSC(C(=O)Nc1ccc(C)c(C)c1)c1ccccc1` (stereo not shown), -4.33%; to `CC(C)(C)c1nc2scc(-c3cccs3)c2c(=O)o1`, 10.5%.
Turning to `Cc1ccc(S(=O)(=O)NCCc2ccc(S(N)(=O)=O)cc2)cc1`, the “hERG current change (%, negative = inhibition) at 1uM” value is given as 2.39%.
In the case of `CC1CCN(Cc2cnc(Cl)s2)CC1`, the “hERG current change (%, negative = inhibition) at 1uM” value is given as 9.49%.
To `CC(=O)Nc1ccc(NC(=O)/C=C/c2cccc(C(F)(F)F)c2)cc1` belongs 4.29%; to `CSc1ccccc1OCc1cc(C(=O)N(C)Cc2cc(C)[nH]n2)no1`, 2.21%.
In the case of `CC(C)NC(=O)NC(=O)COC(=O)c1cc(S(=O)(=O)N2CCCCC2)ccc1N1CCOCC1`, the “hERG current change (%, negative = inhibition) at 1uM” value stood at 17%.
To `C/C(=N\Nc1cccc(Cl)c1)C1(C)N(O)C(C)(C)C(c2ccco2)=[N+]1[O-]` (stereo not shown) belongs 13.6%; to `CC(=O)NCc1ccc(-c2csc(N)n2)s1`, 9.92%; to `CC1CC(C)CN(CCCNC(=O)CN2C(=O)CSc3ccc(S(=O)(=O)N4CCCCC4)cc32)C1` (stereo not shown), 5.37%.
To `O=C(Nc1nc(-c2ccc(F)c(F)c2)cs1)C1=COCCO1` belongs 6.96%.
To `Cc1ccc(C(=O)OCC(=O)NCC2CCCO2)c(C)c1` (stereo not shown) belongs 10.9%; to `Cc1ccc(NS(=O)(=O)c2cc3c(cc2C)NC(=O)CO3)cc1`, -2.75%; to `CC(=O)Nc1ccc(S(=O)(=O)N2CCN(c3ccc([N+](=O)[O-])cc3)CC2)cc1`, -6.25%.
As for `Cc1ccc(NC(=O)CN2C(=O)N/C(=C/c3ccco3)C2=O)cc1`, the “hERG current change (%, negative = inhibition) at 1uM” value is on record as 4.2%.
To `COc1cc(NC(=O)c2ccc3c(SCC(=O)O)c4c(nc3c2)CCCC4)cc(OC)c1OC` belongs 14.4%.
To `COCCn1c(C)cc(C(=O)COc2nc3ccccc3nc2C)c1C` belongs 5.23%; to `CCCOc1ccc(-c2c(C(=O)N/N=C/c3ccncc3)nnn2-c2nonc2N)cc1`, 18.1%; to `COc1ccc(NC(=O)CSc2nc(C(C)C)nc3c2c(=O)n(C)c(=O)n3C)c(OC)c1`, 15.1%.
As for `Oc1c(C(c2ccccc2Cl)N2CCCC2)ccc2cccnc12` (stereo not shown), the “hERG current change (%, negative = inhibition) at 1uM” value is reported as 11.9%.
To `CS(=O)(=O)N1CCC(C(=O)Nc2ccc(Cl)cc2)CC1` belongs 10.9%; to `O=C1COc2ccc(S(=O)(=O)Nc3cccc(Cl)c3)cc2N1`, 4.44%.
To `Cc1ccc(C(C)C)c(OCC(=O)N/N=C/c2ccc(S(=O)(=O)[O-])o2)c1` belongs 14.3%; to `Cc1cc(Cl)c(Cl)cc1S(=O)(=O)NCCCn1ccnc1`, 10.5%.
To `COC(=O)C1=C(C)N(Cc2ccc3c(c2)OCO3)C(=O)C1` belongs 4.26%.
Consider `Nc1nnc(-c2ccc(Cl)cc2Cl)s1`, for which the “hERG current change (%, negative = inhibition) at 1uM” value was determined as 11%.
To `COCC(O)CNc1ccccc1` (stereo not shown) belongs 11%.
To `CC(=O)O[C@]1(C(C)=O)CC[C@H]2[C@@H]3C=C(C)C4=CC(=O)CC[C@@H]4[C@H]3CC[C@@]21C` belongs -12%; to `CC1CC(C)(C)NC(=S)N1CCC(=O)NCc1ccc(F)cc1` (stereo not shown), 4.51%.
To `CC(/C=C/c1ccco1)=N/NC(=O)CNc1ccccc1C` belongs -7.22%; to `Cc1nonc1NCn1nnc2ccccc21`, 10.1%; to `Cc1c(Br)c([N+](=O)[O-])nn1C(C)C(=O)NCc1ccco1` (stereo not shown), 12.2%.
For the molecule `O=C(O)/C=C/C(=O)Nc1cccnc1`, the “hERG current change (%, negative = inhibition) at 1uM” value was found to be 11.2%.
To `CCOc1c(Cl)cc(/C=N/NC(N)=S)cc1OC` belongs 10.3%.
To `Nc1cc(-c2ccc(Br)cc2)nc2cc(-c3ccccc3)nn12` belongs 13.6%; to `Oc1ccc(N=Cc2sc3ccccc3c2Cl)cc1`, 6.22%; to `CC(=O)Nc1ccc(S(C)(=O)=O)c(C)c1`, 8.97%.
To `CCOc1ccccc1NC(=O)c1ccoc1C` belongs 15.3%; to `COc1cc2c(cc1OC)CN(CC(=O)Nc1ccc(F)cc1)CC2`, 17.5%; to `Cc1ccccc1CN1C(=O)c2ccccc2Sc2ccc(C(=O)NCCN3CCOCC3)cc21`, 1.33%.
With `COc1ccc(CN(CC(=O)NCc2ccccc2)C(=O)CCC(=O)Nc2nccs2)cc1`, the “hERG current change (%, negative = inhibition) at 1uM” value is recorded as 10.1%.
To `CC(C)C[C@H](NC(=O)NC(C)C)C(=O)O` belongs 8.86%; to `Cc1cc(NC(=S)NC(=O)c2ccco2)c2ccccc2n1`, 4.69%.
To `CCOC(=O)NCc1ccc(S(=O)(=O)Nc2c(C)cccc2C)cc1` belongs 2.11%.
To `CCN(C(=O)COC(=O)CNC(=O)c1ccccc1C)C1=CCCCC1` belongs -3.57%; to `CC(C)(C)OC(=O)NCCCCc1cn(CC(=O)N2CCN(C(=O)OC(C)(C)C)CC2)nn1`, 22%.
`CCOCCOc1nc(C)cc(C)c1S(=O)(=O)c1ccccc1C`: the “hERG current change (%, negative = inhibition) at 1uM” value is recorded as 8.99%.
Consider `Cc1onc(C(=O)NCc2ccccn2)c1[N+](=O)[O-]`, for which the “hERG current change (%, negative = inhibition) at 1uM” value is recorded as 2.22%.
As to `Cl.OC(CNC1CCCC1)COc1ccc(F)cc1` (stereo not shown), the “hERG current change (%, negative = inhibition) at 1uM” value came out at 12.9%.
To `CC(C)CCNC(=O)C1CCCN(S(=O)(=O)c2ccc3c(c2)CC(C)N3C(=O)C2CC2)C1` (stereo not shown) belongs 7.79%; to `COc1ccc(C(=O)NCc2ccc(-n3cccc3)cc2)cc1OC`, 8.11%.
To `Cc1ccc(NC(=O)CSc2nnc(C)c(=O)n2N)cc1` belongs 4.1%.
To `O=C(O)CCC(=O)N1CCN(Cc2ccc3c(c2)OCO3)CC1` belongs 12.1%; to `Cc1nn(CCN)c(C)c1Cl.Cl`, 15.4%.
Take `COC(=O)c1ccccc1N(C)S(=O)(=O)c1cc2c3c(c1)CCC(=O)N3CCC2`: the “hERG current change (%, negative = inhibition) at 1uM” value was determined as 6.71%.
As for `Cc1cc(C(=O)CSc2nc3ccc(Cl)cc3[nH]2)c(C)n1C`, the “hERG current change (%, negative = inhibition) at 1uM” value is -1.02%.
With `CN(C(=O)CCCN1C(=O)c2cccc3cccc(c23)C1=O)c1ccccc1`, the “hERG current change (%, negative = inhibition) at 1uM” value is -0.109%.
To `Fc1ccccc1CSc1nnc2ccc(-c3ccncc3)nn12` belongs -6.98%; to `Cc1cccnc1NC(=O)c1cccc(S(=O)(=O)NCc2ccccc2)c1`, 7.71%; to `CCC(Oc1ccccc1)C(=O)Nc1ccc(S(=O)(=O)N2CCOCC2)cc1` (stereo not shown), -5.24%.
To `Cc1ccc(-c2cc(C(=O)Nc3c(C)n(C)n(-c4ccccc4)c3=O)[nH]n2)c(O)c1` belongs 9.11%; to `CC(NC(=O)NNC(=O)c1ccncc1)(C(F)(F)F)C(F)(F)F`, 3.04%.
`Cc1ccc(-c2nn(C)c(=O)c3ccccc23)cc1CO`: the “hERG current change (%, negative = inhibition) at 1uM” value is on record as -4.77%.
Turning to `C=CCSc1nc2sc3c(c2c(=O)n1CC=C)CCc1ccccc1-3`, the “hERG current change (%, negative = inhibition) at 1uM” value was 9.88%.
To `COc1ccc(C(=O)NC2CC2)cc1OC1CCN(Cc2ccccc2)CC1` belongs -82.9%; to `N#C/C(=C\c1ccccc1OCc1ccc(C(=O)O)cc1)c1ccccc1`, 16%.
To `COc1ccc(Nc2nc(Nc3ccc(OC)cc3)nc(-n3[nH]c(=O)c(C)c3C)n2)cc1` belongs 1.67%; to `COC(=O)C(CCSC)NC(=O)Cn1ncc2c(=O)oc3ccccc3c21` (stereo not shown), 12.5%.
To `O=C(Nc1ccc2c(c1)OCO2)C1CC(c2ccccc2Cl)=NO1` (stereo not shown) belongs 4.56%; to `O=C(NCCN1CCOCC1)c1ccc(CS(=O)c2ccccc2Cl)o1` (stereo not shown), 0.419%; to `O=C1C2CCCN2C(=S)N1c1ccc(Cl)cc1` (stereo not shown), 16%.
Turning to `Cc1ccccc1NC(=S)NCC1CCC(CNC(=S)Nc2ccccc2C)CC1` (stereo not shown), the “hERG current change (%, negative = inhibition) at 1uM” value was 11.7%.
To `Fc1ccc(OCCCCCCN2CCCC2)cc1` belongs 2.64%; to `O=C(CCNC(=O)c1ccc(Br)cc1)NCC1COc2ccccc2O1` (stereo not shown), 2.19%; to `CC(C)(C)S(=O)(=O)Cc1nc(-c2ccc(Cl)c(Cl)c2)cs1`, 6.76%.
`CCOC(=O)N1CCc2c(sc(N)c2C#N)C1`: the “hERG current change (%, negative = inhibition) at 1uM” value was 5.15%.
To `CCn1nnnc1NCc1ccc(OCc2ccc(F)cc2Cl)c(OC)c1` belongs -1.14%.
To `O=c1c2ccccc2n(Cc2ccc(F)cc2)c(=O)n1C1CCCC1` belongs 8.77%; to `COc1cccc(NC(=O)CN(C)C(=O)CSC(=S)N2CCCC2)c1`, 7.3%; to `O=C(Cc1ccc(Cl)cc1)N1CCN(c2ccccc2)CC1`, 6.04%.
To `CCCn1c(O)c(N=NC(=O)CNC(=O)Cc2ccc(OC)cc2)c2ccccc21` belongs 11.7%; to `CCOC(=O)c1cc(-c2ccc3c(c2)OCCO3)nc2c1c(C)nn2CCC#N`, 11.3%; to `CCOc1ccc(-c2cc(C(=O)NN3CCN(C)CC3)c3cc(Cl)ccc3n2)cc1`, 14.5%.
Take `O=C(Cn1cnc2ccccc2c1=O)NCC1COc2ccccc2O1` (stereo not shown): the “hERG current change (%, negative = inhibition) at 1uM” value is listed as 8.63%.
